The source of these data is paper PMC7819943, “Rice protein-binding microarrays: a tool to detect cis-acting elements near promoter regions in rice”.

The list shows a part of the results.

The experiment addresses T1, OsWOX13 (Oryza sativa, UniProt Q5QMM3 1-267).
T1 sequence: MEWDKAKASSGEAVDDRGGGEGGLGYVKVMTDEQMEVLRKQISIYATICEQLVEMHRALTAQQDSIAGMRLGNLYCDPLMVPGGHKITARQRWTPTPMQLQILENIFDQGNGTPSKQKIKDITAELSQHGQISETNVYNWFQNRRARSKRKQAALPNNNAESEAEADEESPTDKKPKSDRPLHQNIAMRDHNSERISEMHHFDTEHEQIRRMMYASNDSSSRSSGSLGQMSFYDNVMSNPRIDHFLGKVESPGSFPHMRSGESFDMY
In words: protein-binding microarray (RPBM); PBS, 2% BSA, 51.3 ng/ul salmon testes DNA, 50 uM zinc acetate, 200 nM TF, 25 C, 1 h; high values mean tight binding. The conditions noted are these: protein: recombinant; tags: N-terminal polyhistidine and DsRed monomer fusion (pET32a); label: CyDye5-dUTP incorporated in the synthesized complementary strand; 3' TTTTT single-stranded linker to array surface; dsDNA, one strand shown. The procedure, abridged: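 Transcription factors, each fused N-terminally to a polyhistidine tag and DsRed, were expressed in E. coli BL21-CodonPlus and purified on Ni–NTA. A custom Agilent array was made double-stranded by primer extension with Cy5-dUTP and blocked with 2% BSA. It was incubated with 200 nM protein in PBS, 2% BSA, salmon testes DNA and 50 µM zinc acetate at 25 °C for 1 h, then washed. The binding signal is per-feature fluorescence intensity (arbitrary units) read on an Axon 4000B scanner.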
With “CACCCATTGAATTGAAAGATGGGAAAGGGACAGAACTGATCGGAGTCACCTAGTGCAG”, the binding signal was 3260 fluorescence intensity (a.u.).

Regarding “AGAGGAAAGCTGATTGACAATTATGATTTGTGTACGAAGTCGGAGTCACCTAGTGCAG”, the binding signal is 39200 fluorescence intensity (a.u.).

For “GCTGATTAATTTCACTCCATGTACTACTGCCGATTTGTTCCGGAGTCACCTAGTGCAG”, the binding signal is 5750 fluorescence intensity (a.u.).

In the case of “CTGTAATTGCAATTTCTTGCCCAATGTTCAGAATATGTACCGGAGTCACCTAGTGCAG”, the binding signal was 49400 fluorescence intensity (a.u.).

On to “AACAAATTAATTTTCACAATCATCATGCCGACTTGAATGTCGGAGTCACCTAGTGCAG”, for which the binding signal was 26900 fluorescence intensity (a.u.).

For the sequence “CACAAACATACATATTTAAATTTAACTTATAAAAGTAGAACGGAGTCACCTAGTGCAG”, the binding signal is 4220 fluorescence intensity (a.u.).

For “TTTATTCAATCATCACTGCAATAAGTTACTTTCTCTATCCCGGAGTCACCTAGTGCAG”, the binding signal was 17000 fluorescence intensity (a.u.).

Consider “GCCATCCAATCAGTACAGTTGCGTCAAGCATTCAACTTCTCGGAGTCACCTAGTGCAG”, for which the binding signal was 5100 fluorescence intensity (a.u.).

On to “ATTAGGTGTTTCCAGTTAATTAAAGTCATGTAGTACGGATCGGAGTCACCTAGTGCAG”, for which the binding signal was 3680 fluorescence intensity (a.u.).

Regarding “AAATAACGAGCAGACATAATTAGACATACTTGCCCCACCGCGGAGTCACCTAGTGCAG”, the binding signal was 11200 fluorescence intensity (a.u.).

Consider “TCTTACCAAATTTTGACAGGATTTCTTATATATCTACCAACGGAGTCACCTAGTGCAG”, for which the binding signal was 6330 fluorescence intensity (a.u.).

In the case of “TTGGAATTGGAATTATATATGACATATGGATGTATGAAACCGGAGTCACCTAGTGCAG”, the binding signal is 9130 fluorescence intensity (a.u.).

In the case of “AGTGTTGATTTAATGTTAAATATTATAGTTAACACTTAAGCGGAGTCACCTAGTGCAG”, the binding signal is 28200 fluorescence intensity (a.u.).

For the sequence “TAATTAATCTGTTATTAGCAAATATTTACTGTAGCACCACCGGAGTCACCTAGTGCAG”, the binding signal was 3560 fluorescence intensity (a.u.).

Consider “CATCAGATATTTAACACTAATTAGAAATATTAAACATAGTCGGAGTCACCTAGTGCAG”, for which the binding signal was 9680 fluorescence intensity (a.u.).

On to “CATATATGATTAGCGAAGGCTTGGAGTGTGAATCAAACACCGGAGTCACCTAGTGCAG”, for which the binding signal is 20900 fluorescence intensity (a.u.).

Turning to “GTAACAGATTACATGAGGATTATGCGTCTGCATAGGTGGACGGAGTCACCTAGTGCAG”, the binding signal was 9250 fluorescence intensity (a.u.).

With “ACTCAATTTACAGACTTTGATTTGCTTGCTGAATTCCTCTCGGAGTCACCTAGTGCAG”, the binding signal was 33500 fluorescence intensity (a.u.).

As to “GGTGCCAATCATCTCCGGCGGCACGGCACTGCAGATAGCGCGGAGTCACCTAGTGCAG”, the binding signal is 11100 fluorescence intensity (a.u.).

Regarding “ATATGATAATAATTATTTAAAGAAATAAATTTATTTTGGACGGAGTCACCTAGTGCAG”, the binding signal was 28700 fluorescence intensity (a.u.).

On to “ATATGAATAGAAATTTTGCATGATTGCAATCCTACAGATTCGGAGTCACCTAGTGCAG”, for which the binding signal was 15300 fluorescence intensity (a.u.).

For the sequence “CCCCTATGATAGATCCGCTGCTGATTCGGCTGGGAATAAGCGGAGTCACCTAGTGCAG”, the binding signal was 4780 fluorescence intensity (a.u.).

Take “ATTTTGACTGGTTGGCTGGTTGCGATCAAGTTGTGAGATCCGGAGTCACCTAGTGCAG”: the binding signal was 15400 fluorescence intensity (a.u.).

On to “CATCTATGATTGCCTTATGAACGTACATACATACGCACACCGGAGTCACCTAGTGCAG”, for which the binding signal was 36600 fluorescence intensity (a.u.).

Regarding “TCACAATATAATTAAGATTGATTATCCCGCCGATTCATCACGGAGTCACCTAGTGCAG”, the binding signal was 37800 fluorescence intensity (a.u.).

Regarding “TGGTTCGGGCAGGGAGATAATTAGAGAGGAAGAGGATAATCGGAGTCACCTAGTGCAG”, the binding signal is 3600 fluorescence intensity (a.u.).

Turning to “TTACGTAATTTTAAACCGTAAGATTTATTTCCTAATTCGTCGGAGTCACCTAGTGCAG”, the binding signal is 11500 fluorescence intensity (a.u.).

Consider “GGGATCCAATCAATTTCAATTGAATTGTAGAAGTAGTGGTCGGAGTCACCTAGTGCAG”, for which the binding signal was 30700 fluorescence intensity (a.u.).

Take “TAAACTGATCATAAATTCCACTCAAATCAACAGCATTTGACGGAGTCACCTAGTGCAG”: the binding signal is 8880 fluorescence intensity (a.u.).

Consider “CATTTTAAATTGCGATAGCAAGATCACAAATTTCTCAGCGCGGAGTCACCTAGTGCAG”, for which the binding signal was 7180 fluorescence intensity (a.u.).

Turning to “CTTGATGGAACAACCACGTTATCTCATGGGTGAATCCATTCGGAGTCACCTAGTGCAG”, the binding signal was 22600 fluorescence intensity (a.u.).

“ATAAAACAAATTACAAAATCCGCCTGTAAACCGCGAGACGCGGAGTCACCTAGTGCAG”: the binding signal was 3460 fluorescence intensity (a.u.).

Take “ATAAATTGCACCATCATCTCTCGCTTCTTGTCTTCGCAACCGGAGTCACCTAGTGCAG”: the binding signal was 16200 fluorescence intensity (a.u.).

For the sequence “GCTTGATTTTCAGAGGGACCTTGCTCCCCTAAATTTCCTGCGGAGTCACCTAGTGCAG”, the binding signal is 6480 fluorescence intensity (a.u.).

With “TTAAGTGAGGAGTGATTAATTGCAGTTGATATGGGGCACACGGAGTCACCTAGTGCAG”, the binding signal is 13300 fluorescence intensity (a.u.).

In the case of “AGGTAAGATTGGTTGCACTCAACCTCGTCGTGTGGCTGCACGGAGTCACCTAGTGCAG”, the binding signal is 8530 fluorescence intensity (a.u.).

With “TTGTGATTTGTTAGAATTGTATTTTACAATGTGTAGTATGCGGAGTCACCTAGTGCAG”, the binding signal was 39800 fluorescence intensity (a.u.).

Turning to “CCCAAAACAAAATTATAGTTAAACTGTTAAAGTAAAGCAACGGAGTCACCTAGTGCAG”, the binding signal is 7660 fluorescence intensity (a.u.).

For the sequence “TATGACTGGTTGATTCAACTTTCAAACAAAGCTTACAAAACGGAGTCACCTAGTGCAG”, the binding signal is 6790 fluorescence intensity (a.u.).

Regarding “AACCAATTCAAGTTAATATTGATTGGCTACACGCATATAGCGGAGTCACCTAGTGCAG”, the binding signal is 47800 fluorescence intensity (a.u.).

As for “GGGTAATCACGATCAATCCCCTCTCAGATCTATCGCCTTCCGGAGTCACCTAGTGCAG”, the binding signal is 6210 fluorescence intensity (a.u.).

Regarding “AAAGTTAAATCAATTTATCCAAGTGAAATGTTGGGAGAATCGGAGTCACCTAGTGCAG”, the binding signal was 10300 fluorescence intensity (a.u.).
